Source: PubChem BioAssay AID1347165 (National Center for Advancing Translational Sciences (NCATS), 2019)
Where “and” joins values, the source holds several entries; their conditions need not be identical. Equal entries are not always repeated. Out of some 220,000 compounds screened, about 5,700 (2.6%) were called active. Inconclusive means that the source gave no clear call. Such entries were picked first, then a sample of the others. The call rests on the fitted dose curve; in most records, active means well fitted inhibition curve with a large enough effect; inconclusive means small, poorly fitted or top-dose-only effect; inactive means no such curve, though single readings can be large or run the other way. A potency beside an inconclusive call is a rough fit, not a confirmed value.

biological target: Lysine-specific demethylase 5B (Homo sapiens) (UniProt Q9UGL1); experiment: Primary screen for KDM5B Histone Demethylases FDH-coupled qHTS; conditions: FDH-coupled NADH fluorescence (FDH is formaldehyde dehydrogenase); series mostly up to 57.7 µM; further: nearly all actives have a fitted effect of over 70% in size
UniProt Q9UGL1, sequence (Q9UGL1 whole entry, looked up): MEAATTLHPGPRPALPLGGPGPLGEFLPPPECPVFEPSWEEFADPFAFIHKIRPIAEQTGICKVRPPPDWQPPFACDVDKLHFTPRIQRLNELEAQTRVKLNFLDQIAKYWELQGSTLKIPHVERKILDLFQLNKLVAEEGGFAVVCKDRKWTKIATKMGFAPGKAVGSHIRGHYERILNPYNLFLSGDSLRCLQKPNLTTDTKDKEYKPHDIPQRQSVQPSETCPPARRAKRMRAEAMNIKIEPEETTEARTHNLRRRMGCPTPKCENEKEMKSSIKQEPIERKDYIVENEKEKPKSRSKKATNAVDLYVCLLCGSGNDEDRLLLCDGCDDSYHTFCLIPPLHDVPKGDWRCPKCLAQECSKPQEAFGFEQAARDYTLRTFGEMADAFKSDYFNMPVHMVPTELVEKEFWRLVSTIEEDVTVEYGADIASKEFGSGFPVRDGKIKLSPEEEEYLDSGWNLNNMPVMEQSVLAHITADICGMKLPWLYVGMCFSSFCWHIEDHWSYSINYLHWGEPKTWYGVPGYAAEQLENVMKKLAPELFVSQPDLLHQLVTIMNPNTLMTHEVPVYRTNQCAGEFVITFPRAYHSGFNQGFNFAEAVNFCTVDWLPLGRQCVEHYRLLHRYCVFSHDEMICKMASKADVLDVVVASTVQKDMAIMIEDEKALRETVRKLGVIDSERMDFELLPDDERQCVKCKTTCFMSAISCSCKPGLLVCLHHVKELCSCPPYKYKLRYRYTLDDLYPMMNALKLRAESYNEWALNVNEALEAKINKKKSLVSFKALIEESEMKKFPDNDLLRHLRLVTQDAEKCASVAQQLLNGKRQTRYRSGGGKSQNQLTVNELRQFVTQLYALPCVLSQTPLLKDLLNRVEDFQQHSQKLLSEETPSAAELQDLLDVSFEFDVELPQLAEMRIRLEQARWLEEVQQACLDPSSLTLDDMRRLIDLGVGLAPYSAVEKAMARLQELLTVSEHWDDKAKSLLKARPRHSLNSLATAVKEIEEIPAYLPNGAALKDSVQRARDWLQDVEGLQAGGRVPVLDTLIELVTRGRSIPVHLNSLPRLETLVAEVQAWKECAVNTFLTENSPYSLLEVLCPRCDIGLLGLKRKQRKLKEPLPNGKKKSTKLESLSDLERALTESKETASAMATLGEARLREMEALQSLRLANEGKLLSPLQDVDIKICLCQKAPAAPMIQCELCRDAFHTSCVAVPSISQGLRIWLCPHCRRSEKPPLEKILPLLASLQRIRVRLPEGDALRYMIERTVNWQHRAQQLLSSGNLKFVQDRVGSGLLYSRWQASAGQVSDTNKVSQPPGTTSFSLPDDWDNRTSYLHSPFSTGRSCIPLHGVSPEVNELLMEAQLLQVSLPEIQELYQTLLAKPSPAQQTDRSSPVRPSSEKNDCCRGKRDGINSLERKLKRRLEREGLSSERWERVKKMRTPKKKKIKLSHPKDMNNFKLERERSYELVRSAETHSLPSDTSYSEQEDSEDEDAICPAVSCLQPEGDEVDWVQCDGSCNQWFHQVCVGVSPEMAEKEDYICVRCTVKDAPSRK
In short: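 KDM5BΔAP (200 nM final) in 50 mM HEPES pH 7.5, 0.01% Tween-20 was preincubated 10 min at RT with compound over a concentration range. Substrate mix (H3K4me3 12.5 µM, α-KG 25 µM, Fe²⁺, ascorbate, NAD⁺, FDH) was added, and NADH fluorescence change over 30 min gave dose-response curves.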
Potency means the concentration at half of the fitted maximal effect; tags describe the fitted curve by direction and shape.

For Nc1ccc(-c2cc3ccccc3o2)cc1, which Potency is on record?
The Potency was inconclusive: 15.8 µM [inhibitor, partial curve, poor fit].

For c1cc(-c2ccnc3nc(CCC4CCCC4)nn23)ccn1, which Potency is on record?
Its Potency is active: 28.2 µM.

Which Potency does the source give for CCN(CC)C(=S)SCC(=O)Nc1ccc(N(CC)C(C)C)cc1 here?
Its Potency is “inactive”.

Which Potency does the source give for O=C(c1ccc(Cl)cc1Cl)N(CCS(=O)(=O)N1CCOCC1)Cc1cccnc1 here?
Its Potency is inconclusive: 11.2 µM [inhibitor, partial curve, poor fit].

Cc1[nH]c(=O)[nH]c(=O)c1CN1CCCC(CCc2ccc(F)cc2F)C1 (stereo not drawn) was tested. Which Potency did it give?
Its Potency is “inactive”.

For O=C1c2cccn2CC(CNS(=O)(=O)c2ccccc2)N1Cc1ccccc1 (stereo not drawn), which Potency is on record?
Its Potency is “inactive”.

How did the Potency turn out when CCOc1c(Br)cc(C2C=C(C(=O)O)Nc3ncnn32)cc1OC (stereo not drawn) was run?
The Potency was inconclusive: 17.8 µM [inhibitor, partial curve, poor fit] and inconclusive: 22.4 µM [inhibitor, single point].

For COc1ccc(NCc2cc3cc4c(cc3n(CC(=O)Nc3ccc(C)cc3C)c2=O)OCO4)cc1, which Potency is on record?
The Potency was inconclusive: 2.51 µM [inhibitor, full curve, poor fit].

With CCOC(=O)c1cc(OC(=O)c2ccccc2F)n(-c2ccccc2)n1 as the compound, how does the Potency read?
Its Potency is inconclusive: 22.4 µM [inhibitor, partial curve, poor fit].

How did the Potency turn out when COc1ccc(-c2cn3c(n2)CO[C@@H](CNC(=O)CCC(=O)O)C3)cc1 was run?
Its Potency is inconclusive: 50.1 µM [inhibitor, single point].

CSc1nnc(NC(=O)c2cc(=O)c3cc(Cl)cc(Cl)c3o2)s1 was tested. Which Potency did it give?
The Potency was “inactive”.

Which Potency does the source give for COC(=O)C(C)N1C(=O)S/C(=C/c2ccc(C)o2)C1=O (stereo not drawn) here?
Its Potency is inconclusive: 15.8 µM [inhibitor, partial curve, poor fit].

Which Potency does the source give for CCOc1ccccc1NC(=O)Cn1nnc(C(=O)NCc2cccs2)c1N here?
The Potency was “inactive”.

How did the Potency turn out when CCCC(=O)N1CCCN(C(C)C(=O)Nc2ccc(F)c(F)c2)CC1 (stereo not drawn) was run?
The Potency was “inactive”.

How did the Potency turn out when COc1ccc(-c2ccc3c(c2)C(=O)N2CC[C@H](NC(=O)c4cccc(F)c4)[C@H]2C(=O)N3)cc1 was run?
The Potency was inconclusive: 25.1 µM [inhibitor, single point].

How did the Potency turn out when Cc1ccsc1C(=O)NCc1nnc2ccc(-c3ccc(Cl)cc3)nn12 was run?
Its Potency is active: 31.6 µM.

How did the Potency turn out when Cc1nnc(-c2cc(-c3cnn(C)c3)ccn2)n1Cc1ccccc1 was run?
Its Potency is inconclusive: 28.2 µM [inhibitor, partial curve].

How did the Potency turn out when COc1cccc(-c2nc(-c3ccc(Br)o3)no2)c1 was run?
The Potency was inconclusive: 35.5 µM [inhibitor, single point].

For CCc1c(-c2ccccc2)nc2ccccc2c1C(=O)NC(C)c1ccccc1 (stereo not drawn), which Potency is on record?
The Potency was inconclusive: 1.12 µM [inhibitor, full curve, poor fit].

CCOc1ccccc1NC(=O)c1nc(S(=O)(=O)Cc2cccc(C)c2)ncc1Cl was tested. Which Potency did it give?
The Potency was inconclusive: 1.58 µM [inhibitor, full curve, poor fit].

C=CCn1cc(/C=C2/NC(=O)NC2=O)c2ccccc21 was tested. Which Potency did it give?
Its Potency is inconclusive: 25.1 µM [inhibitor, single point].

Cc1c(Cl)cccc1N=Cc1ccc(C=Nc2cccc(Cl)c2C)cc1 was tested. Which Potency did it give?
The Potency was inconclusive: 28.2 µM [inhibitor, single point].

Which Potency does the source give for COc1cc(OC)cc(C(=O)N[C@@H]2CN(c3ncccn3)C[C@H]2CO)c1 here?
The Potency was inconclusive: 17.8 µM [inhibitor, partial curve, poor fit].

How did the Potency turn out when CC1(c2ccccc2)N(Cc2ccccc2F)C(=O)OC12CCN(c1cccnc1)CC2 (stereo not drawn) was run?
The Potency was inconclusive: 56.2 µM [inhibitor, single point].

Which Potency does the source give for COC(=O)CCOc1ccc(S(=O)(=O)Nc2ccc(F)cc2F)cc1 here?
The Potency was “inactive”.

How did the Potency turn out when CN1C(=O)c2cccn2CC1CNC(=O)c1cc(-c2ccccc2)n[nH]1 (stereo not drawn) was run?
Its Potency is “inactive”.

How did the Potency turn out when CC(C)c1cc(C(=O)O)c2cnn(C(C)C)c2n1 was run?
The Potency was inconclusive: 31.6 µM [inhibitor, partial curve, poor fit].

For COc1cccc(CNC(=O)Cn2ncc3ccc(OC)c(OC)c3c2=O)c1, which Potency is on record?
The Potency was inconclusive: 28.2 µM [inhibitor, single point].

For COc1ccccc1C(c1c(O)cc(C)n(Cc2ccco2)c1=O)N1CCCCC1 (stereo not drawn), which Potency is on record?
Its Potency is inconclusive: 15.8 µM [inhibitor, partial curve, poor fit].

COCc1ccc2c(c1)c(OC(C)(C)C(=O)NC1CCC(O)CC1)nn2CCC(C)C (stereo not drawn) was tested. Which Potency did it give?
The Potency was active: 31.6 µM.

For N#CCn1nc2n(c1=O)CCN(C(=O)Cc1c[nH]c3ccccc13)CC2, which Potency is on record?
Its Potency is inconclusive: 39.8 µM [inhibitor, single point].

With Cc1cccc(N2CCN(S(=O)(=O)c3cc(C(=O)Nc4ccc(Oc5ccccc5)cc4)ccc3F)CC2C)c1 (stereo not drawn) as the compound, how does the Potency read?
The Potency was inconclusive: 3.98 µM [inhibitor, full curve, poor fit].

For NC(=O)C(c1ccccc1)N(Cc1cccs1)C1CC1 (stereo not drawn), which Potency is on record?
The Potency was “inactive”.

For CC(C)c1cc(-c2nc(-c3ccc4c(c3)OCO4)no2)n[nH]1, which Potency is on record?
Its Potency is “inactive”.

Which Potency does the source give for CC1=C[C@@H](CNC(=O)c2cnccn2)[C@H](C(C)C)C[C@H]1Cc1nc2ccc(C)cc2[nH]1 here?
Its Potency is “inactive”.

How did the Potency turn out when Cc1ccc2c(CN3CCN(C(=O)c4ccco4)CC3)cc(=O)oc2c1 was run?
The Potency was “inactive”.

With CN1CCC(NC(=O)C(C)(C)Oc2nn(Cc3cccc(Cl)c3)c3ccccc23)CC1 as the compound, how does the Potency read?
The Potency was inconclusive: 39.8 µM [inhibitor, partial curve].

How did the Potency turn out when Cc1cccc(CN2CCN(Cc3nc(-c4cccs4)oc3C)CC2CCO)n1 (stereo not drawn) was run?
Its Potency is active: 25.1 µM.

Which Potency does the source give for Cc1ccc(OCc2nc(C3CN(C(=O)CCc4nc5ccccc5s4)C3)no2)cc1 here?
The Potency was “inactive”.

How did the Potency turn out when Cc1ccc(C(C)C)c(OC(=O)c2ccc(-c3ccccc3)cc2)c1 was run?
The Potency was “inactive”.

Which Potency does the source give for O=C(/C=C/c1cccnc1)Nc1ccc(SC2CCCC2)cc1 here?
Its Potency is “inactive”.

Clc1ccc(CNCc2ccccc2Cn2cncn2)c(Cl)c1 was tested. Which Potency did it give?
The Potency was “inactive”.

How did the Potency turn out when Cc1ccc(-c2onc3ccc(-c4cc(C(=O)O)c5cc(Br)ccc5n4)cc23)cc1 was run?
The Potency was “inactive”.

With CCCOc1ccc(C(=O)Nc2cc(S(=O)(=O)N3CCOCC3)ccc2N2CCOCC2)cc1 as the compound, how does the Potency read?
Its Potency is inconclusive: 39.8 µM [inhibitor, single point].

For COC(=O)c1ccc(NC(=O)c2c(NCc3cccc(F)c3)sc3c2CCCC3)cc1, which Potency is on record?
The Potency was inconclusive: 25.1 µM [inhibitor, partial curve, poor fit].

How did the Potency turn out when O=C(Nc1cccc2ccccc12)O[C@@H]1CO[C@H]2[C@@H]1OC[C@@H]2NS(=O)(=O)c1ccc2ccccc2c1 was run?
The Potency was inconclusive: 31.6 µM [inhibitor, single point].

O=C1c2ccccc2NC(c2ccc(Cl)cc2)N1c1ccc(O)cc1 (stereo not drawn) was tested. Which Potency did it give?
The Potency was inconclusive: 12.6 µM [inhibitor, partial curve, poor fit].

For CCCn1nc(C(=O)N(CCOC)Cc2nc3ccccc3c(=O)[nH]2)c2ccccc2c1=O, which Potency is on record?
The Potency was “inactive”.

For c1cc(-c2cc(-c3ccncc3)c3cncn3c2)c2cc[nH]c2c1, which Potency is on record?
Its Potency is inconclusive: 35.5 µM [inhibitor, partial curve, poor fit].

Which Potency does the source give for O=C(Cc1ccc(N(Cc2ccc(F)cc2)C(=O)c2ccco2)cc1)NCc1ccc(F)cc1 here?
The Potency was inconclusive: 31.6 µM [inhibitor, partial curve, poor fit].

For COc1cccc(CNC(=O)C(C)Oc2ccccc2)c1 (stereo not drawn), which Potency is on record?
Its Potency is “inactive”.

Which Potency does the source give for CC(C)c1ccc2oc(-c3ccc(NC(=O)c4cccnc4)cc3)nc2c1 here?
Its Potency is inconclusive: 7.94 µM [inhibitor, full curve, poor fit].

COc1ccc(CNC(=O)Cn2c(=O)c3cccn3c3cccnc32)cc1 was tested. Which Potency did it give?
The Potency was inconclusive: 39.8 µM [inhibitor, single point].

For COc1cccc(CNC(=O)[C@@H]2C[C@@H](O)CN2C2CCN(C(=O)c3ccc(C)s3)CC2)c1, which Potency is on record?
The Potency was “inactive”.

Cc1cccn2c(=O)c(C(=O)N3CCN(c4ccccc4F)CC3)cnc12 was tested. Which Potency did it give?
Its Potency is inconclusive: 2.51 µM [inhibitor, partial curve, poor fit].

For COC(=O)C1=CN(Cc2ccc(OC)cc2)C=C(C(=O)OC)C1c1ccc(OC)cc1, which Potency is on record?
Its Potency is inconclusive: 8.91 µM [inhibitor, full curve, poor fit].

How did the Potency turn out when CCCCN(C)CCNC(=O)c1nn(-c2ccc(OC)c(Cl)c2)c(=O)c2c1c1ccccc1n2C was run?
The Potency was “inactive”.

Cn1nc(C(=O)Nc2cccc(Cl)c2)c2c1-c1ccsc1CC2 was tested. Which Potency did it give?
Its Potency is “inactive”.

With CCOc1cc(=O)n2c(c1C(=O)NCCCN1CCCc3ccccc31)CCCCC2 as the compound, how does the Potency read?
The Potency was active: 11.2 µM.

For COc1ccc(-c2c(C)oc3cc(OCC(=O)O)ccc3c2=O)cc1OC, which Potency is on record?
The Potency was “inactive”.

CCN1c2cc(C(=O)Nc3ccc4c(c3)OCCO4)ccc2C(=O)N2CCCCCC21 (stereo not drawn) was tested. Which Potency did it give?
The Potency was inconclusive: 25.1 µM [inhibitor, partial curve, poor fit].

Which Potency does the source give for CCOc1ccc(C(c2c(O)nc(SC)[nH]c2=O)c2c(O)nc(SC)[nH]c2=O)cc1 here?
The Potency was inconclusive: 25.1 µM [inhibitor, single point].

Which Potency does the source give for COc1ccccc1C(=O)N1CCN(c2cc(C(F)(F)F)ncn2)CC1 here?
The Potency was “inactive”.

With CC(C)c1ccc(Nc2nc(N)c(C#N)c(CC#N)c2C#N)cc1 as the compound, how does the Potency read?
Its Potency is inconclusive: 11.2 µM [inhibitor, partial curve, poor fit].

Which Potency does the source give for CCOC(=O)c1ccc(NC(=O)N2Cc3[nH]cnc3C[C@H]2c2nc(C(C)C)no2)cc1 here?
Its Potency is inconclusive: 31.6 µM [inhibitor, single point].

For Cc1ccc(-c2noc([C@@H]3Cc4nc[nH]c4CN3C(=O)CCC(=O)O)n2)cc1, which Potency is on record?
The Potency was inconclusive: 39.8 µM [inhibitor, single point].

For COc1cccc2cc(C(=O)Nc3ccccc3OC(F)F)c(=O)oc12, which Potency is on record?
The Potency was “inactive”.

For CCOC(=O)c1c(C)c(-c2ccccc2)n(CC(=O)Nc2cccc(SC)c2)c1C, which Potency is on record?
Its Potency is “inactive”.
